Among the data in PubChem BioAssay AID360 (National Center for Advancing Translational Sciences (NCATS), 2006) are Potency values, retold here.

In all, about 48,000 compounds went through this assay and about 550 (1.1%) were called active. Inconclusive results (about 4%) are left out. Cut-off read from the data, not from the text of the source: active = potency below about 15 µM; inconclusive = mostly about 16 µM to 33 µM; inactive = weaker than that. The list shows a part of the results.
Potency is the fitted concentration of half-maximal effect.

Sequence of UniProt P04062 (P04062 whole entry, looked up): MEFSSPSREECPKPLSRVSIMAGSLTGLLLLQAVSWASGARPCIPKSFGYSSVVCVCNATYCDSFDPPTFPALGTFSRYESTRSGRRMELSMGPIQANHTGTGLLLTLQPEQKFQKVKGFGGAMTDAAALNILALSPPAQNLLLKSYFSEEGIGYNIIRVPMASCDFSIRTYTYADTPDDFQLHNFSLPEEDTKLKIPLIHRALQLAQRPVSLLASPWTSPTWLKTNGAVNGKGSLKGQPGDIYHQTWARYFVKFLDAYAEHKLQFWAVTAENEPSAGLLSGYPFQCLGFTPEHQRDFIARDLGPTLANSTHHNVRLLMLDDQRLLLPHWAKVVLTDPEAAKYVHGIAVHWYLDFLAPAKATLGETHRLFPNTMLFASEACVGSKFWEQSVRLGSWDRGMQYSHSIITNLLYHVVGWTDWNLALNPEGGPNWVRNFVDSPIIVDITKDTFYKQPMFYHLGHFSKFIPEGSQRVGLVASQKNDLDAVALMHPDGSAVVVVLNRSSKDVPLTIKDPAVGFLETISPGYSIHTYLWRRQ

The experiment concerns the target Lysosomal acid glucosylceramidase (Homo sapiens) (UniProt P04062). The experiment is described as follows: Glucocerebrosidase.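 Note: the screen sought inhibitors.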 Conditions: purified enzyme, resorufin glucoside fluorescence (screen aimed at inhibitors), 20 min. The essentials:
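Compounds titrated against 0.2 nM normal enzyme, 30 uM resorufin beta-D-glucopyranoside substrate, citrate/phosphate buffer with taurocholate and tween-20, pH 5.9. Reaction ran 20 min at room temperature; fluorescence (Ex 548/Em 600) gave AC50.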
`O=C(NCc1ccc(Cl)cc1)c1noc2c1CCCC2`: the Potency is inactive: > 76.9 µM.
Regarding `Cc1onc(-c2ccccc2Cl)c1C(=O)NCCCN1CCOCC1`, the Potency was inactive: > 76.9 µM.
As to `Cc1ccc(-c2nnn(Cc3nc4ccccc4s3)n2)cc1`, the Potency is inactive: > 76.9 µM.
Take `COc1ccccc1C(=O)Nc1ccccc1SC`: the Potency is inactive: > 76.9 µM.
Consider `CCOC(NC(=O)c1ccccc1)C(NC(=O)c1ccccc1)OCC` (stereo unspecified), for which the Potency is inactive: > 76.9 µM.
The figure for `N#Cc1ccc(OCC(=O)N2CCN(S(=O)(=O)c3cccs3)CC2)cc1` is inactive: > 76.9 µM.
Consider `N#Cc1ccc(-c2nnnn2-c2ccc3c(c2)OCO3)cc1`, for which the Potency was active: 14.8 µM.
As for `COC(=O)c1ccc(CSc2nc(-c3ccc(OC)cc3)nc3c2c(=O)n(C)c(=O)n3C)o1`, the Potency was inactive: > 76.9 µM.
Under `CC(=O)Nc1ccc(OCC(O)CN2CCN(c3ccc(C)c(Cl)c3)CC2)cc1` (stereo unspecified) stands inactive: > 76.9 µM.
Under `COCc1cc(=O)[nH]c(SCC(=O)Nc2ccccc2)n1` stands inactive: > 76.9 µM.
As for `O=C(Cc1nn[nH]n1)NCCC1=CCCCC1`, the Potency is inactive: > 76.9 µM.
The figure for `O=C1CCCC2=C1C(c1ccc3c(c1)OCO3)c1c([nH]n(-c3ccccc3)c1=O)N2` (stereo unspecified) is inactive: > 76.9 µM.
As for `Cc1csc(NC(=O)c2ccccc2O)n1`, the Potency is inactive: > 76.9 µM.
The figure for `COc1ccccc1OCC(=O)Nc1oc(-c2ccccc2)c(-c2ccccc2)c1C#N` is inactive: > 76.9 µM; for `CC1CCCN(C(=O)c2ccc3nc[nH]c3c2)C1` (stereo unspecified) it is inactive: > 76.9 µM; for `Cc1cc(C)c2cc(C#N)c(NCCCNC(=O)CCC(=O)O)nc2c1` it is inactive: > 76.9 µM.
The figure for `CCC(C)(C)n1nnnc1CN(Cc1ccco1)Cc1cc2cc3c(cc2[nH]c1=O)OCO3` is inactive: > 76.9 µM.
Under `CC(C)OC(=O)Nc1ccc(Oc2c(F)c(F)c(F)c(F)c2F)cc1` stands inactive: > 76.9 µM; under `COc1ccc(N2CCN(S(=O)(=O)c3ccc(C(=O)NC4CCCC4)cc3)CC2)cc1`, inactive: > 76.9 µM; under `Cc1ccc(NCN2C(=O)c3ccccc3C2=O)c(C)c1`, inactive: > 76.9 µM.
Consider `CCCN(CCC)C(=O)Cn1c(=O)n(CCCCC(=O)NC2CCCC2)c(=O)c2ccccc21`, for which the Potency is inactive: > 76.9 µM.
Consider `COC(=O)c1[nH]c2ccccc2c1NC(=O)CNC1CCCCC1`, for which the Potency is inactive: > 76.9 µM.
In the case of `CN(C(=O)Cn1c(=O)n(CCCCC(=O)NC2CCCC2)c(=O)c2ccccc21)C1CCCCC1`, the Potency is inactive: > 76.9 µM.
In the case of `Cc1ccnc(SCCn2c(N3CCOCC3)nc3c2c(=O)[nH]c(=O)n3C)n1`, the Potency is inactive: > 76.9 µM.
For the compound `CCOC(=O)C1CCN(C(=O)COC(=O)CCOc2ccc(C)cc2)CC1`, the Potency is inactive: > 76.9 µM.
Under `CC(C)(C)NC(=O)NC(=O)COc1ccccc1C#N` stands inactive: > 76.9 µM.
Under `O=C(Cn1cnc2c(cnn2-c2ccccc2)c1=O)OCc1ccccc1` stands inactive: > 76.9 µM.
The figure for `COc1ccc2[nH]c(C(=O)O)c(CCNC(C)=O)c2c1` is inactive: > 76.9 µM; for `CCOc1ccc2[nH]c(=O)c(CN(CC3CCCN3CC)C(=O)NCc3ccccc3)cc2c1` (stereo unspecified) it is inactive: > 76.9 µM; for `COC(=O)c1cc(NC(=O)Cn2c(=O)cnc3ccccc32)cc(C(=O)OC)c1` it is inactive: > 76.9 µM.
With `O=C(NCc1cccs1)C1CCCN(S(=O)(=O)c2cccs2)C1` (stereo unspecified), the Potency was inactive: > 76.9 µM.
The figure for `CCC(CCC(=O)Nc1ccn(-c2ccccc2)n1)C(=O)O` (stereo unspecified) is inactive: > 76.9 µM; for `CCC(=O)N1CCN(c2ccccc2NC(=O)Cc2ccccc2)CC1` it is inactive: > 76.9 µM; for `CCn1c(=O)c(C(=O)NCc2ccc(OC)cc2)c(O)c2ccccc21` it is inactive: > 76.9 µM.
The figure for `CCOC(=O)N1CCN(C(=O)c2ccc(CNS(=O)(=O)c3ccc(C)cc3)cc2)CC1` is inactive: > 76.9 µM; for `CCn1c(=O)c2c(nc(SCC(=O)NCC3CCCO3)n2C)n(C)c1=O` (stereo unspecified) it is inactive: > 76.9 µM; for `COc1ccc(N2CCN(CCNC(=O)c3ccc(NC(=O)C4CCCO4)cc3)CC2)cc1` (stereo unspecified) it is inactive: > 76.9 µM.
The figure for `CC(C)Cn1c(SCC(=O)NC(=O)Nc2ccc3c(c2)OCCO3)nc2ccccc2c1=O` is inactive: > 76.9 µM; for `COCC(C)NC(=O)c1cccc(Cl)c1` (stereo unspecified) it is inactive: > 76.9 µM.
Regarding `CCOC(=O)CSc1nnc([C@H](C)NC(=O)OC(C)(C)C)o1`, the Potency was inactive: > 76.9 µM.
As to `COc1ccc(N2CCN(C(=O)Cn3c(=O)[nH]c4ccsc4c3=O)CC2)cc1`, the Potency is inactive: > 76.9 µM.
Take `COc1ccc(CCNS(=O)(=O)c2cccc3nsnc23)cc1OC`: the Potency is inactive: > 76.9 µM.
The figure for `O=C(CCC1COc2ccccc2O1)Nc1ccccn1` (stereo unspecified) is inactive: > 76.9 µM.
Consider `Cc1cc(NC(=O)COc2ncnc3sc(C)c(C)c23)no1`, for which the Potency was inactive: > 76.9 µM.
Regarding `C=CCn1c(SCC(=O)N2CCOCC2)nc2sc3c(c2c1=O)CCCC3`, the Potency was inactive: > 76.9 µM.
Under `O=C(NCc1cccnc1)c1ccc(S(=O)(=O)N2CCOCC2)cc1` stands inactive: > 76.9 µM; under `O=C(c1ccccc1)N1CCCCC(Sc2nnnn2-c2ccccc2)C1=O` (stereo unspecified), inactive: > 76.9 µM; under `COC(=O)c1[nH]c2cccc(OC)c2c1NC(=O)CN1CCC(C(N)=O)(N2CCCCC2)CC1`, inactive: > 76.9 µM.
Consider `Cc1ccc2c(CC(=O)OC(C)C(=O)NCc3ccc4c(c3)OCO4)coc2c1` (stereo unspecified), for which the Potency is inactive: > 76.9 µM.
The figure for `COc1ccc(Cl)cc1S(=O)(=O)N1CCCC(C(=O)NCC(N)=O)C1` (stereo unspecified) is inactive: > 76.9 µM; for `CC(C)c1ccc(NC(=O)C(c2ccccc2)N2CCN(C=O)CC2)cc1` (stereo unspecified) it is “inactive”; for `CCOC(=O)c1c(C)[nH]c(C(=O)CN2CC(C)OC(C)C2)c1C` (stereo unspecified) it is “inactive”.
The figure for `COC(=O)c1cnc2c(C(F)(F)F)cccc2c1OC` is inactive: > 76.9 µM; for `C=CCn1c(COc2cccc3cccnc23)nnc1SCC(=O)OC` it is inactive: > 76.9 µM; for `CCCn1c(=N)c(C(=O)NCC2CCCO2)cc2c(=O)n3cccc(C)c3nc21` (stereo unspecified) it is inactive: > 76.9 µM.
The figure for `CN1C(=O)Cc2cc(S(=O)(=O)N3CCOCC3)ccc21` is inactive: > 76.9 µM.
Turning to `CCOC(=O)c1c(C)c(C(=O)NCC2CCCO2)c(C)n1C` (stereo unspecified), the Potency is inactive: > 76.9 µM.
As to `COc1cc2c(cc1OC)C(C)N(C(=O)c1cc3n(n1)C(C(F)(F)F)CC(c1ccco1)N3)CC2` (stereo unspecified), the Potency is inactive: > 76.9 µM.
With `CCN(CC)CCn1c(=S)[nH]c2ccc(Cl)cc2c1=O`, the Potency was inactive: > 76.9 µM.
Take `Cc1ccc(S(=O)(=O)NCCSc2nnc(N)s2)cc1`: the Potency was inactive: > 76.9 µM.
Under `CCOC(=O)C1=C(C)N(C)C(C)=C(C(=O)OCC)C1c1cccnc1` stands inactive: > 76.9 µM.
The figure for `COc1ccccc1CNc1ccc(N2CCOCC2)c(C(=O)O)c1` is inactive: > 76.9 µM.
As to `Cc1ccc(OCCCCn2ccnc2)c(Cl)c1`, the Potency was inactive: > 76.9 µM.
The figure for `COc1ccc(CCNC(=O)Cn2c(=O)oc3ccccc32)cc1OC` is inactive: > 76.9 µM.
Under `CCC(=O)N(Cc1cc(=O)[nH]c2ccccc12)C1CCCCC1` stands inactive: > 76.9 µM; under `CC1=C(C(=O)N2CCCCCC2)C2(CCC(C)CC2)OC1=O` (stereo unspecified), inactive: > 76.9 µM.
For `C=CCN(C(=O)Nc1ccccc1)C1CC(=O)N(c2ccc(OC)cc2)C1=O` (stereo unspecified), the Potency is inactive: > 76.9 µM.
As for `COCCNC(=O)c1ccc(CS(=O)(=O)c2ccc(C)cc2)o1`, the Potency was inactive: > 76.9 µM.
The figure for `COc1ccccc1-c1nc(SCC(=O)O)n[nH]1` is inactive: > 76.9 µM; for `O=C(O)Cn1c(O)c(C=Nc2ccccc2)sc1=S` it is “inactive”.
The figure for `Cc1ccc(C(=O)CSc2nnc(Cn3nnc4ccccc43)n2C)cc1` is inactive: > 76.9 µM; for `CC(C)c1cc(CN2CCN(CCC#N)CC2)cc(C(C)C)c1O` it is inactive: > 76.9 µM.
As to `Cn1nnc(NC(=O)CSc2nnnn2-c2ccc(F)cc2)n1`, the Potency is inactive: > 76.9 µM.
The figure for `CCOc1ccc2ccccc2c1C(=O)N1CCOCC1` is inactive: > 76.9 µM; for `COC(=O)NC1CSCC1OC(=O)c1ccc(Br)cc1` (stereo unspecified) it is inactive: > 76.9 µM; for `N#Cc1cc(Cl)c(N2CCOCC2)cc1C#N` it is inactive: > 76.9 µM.
As for `COCCNC(=O)c1ccc(CS(=O)(=O)c2ccccc2)o1`, the Potency is inactive: > 76.9 µM.
On to `CC1(C)CC(NC(=O)CCC2CCCC2)CC(C)(C)N1`, for which the Potency was inactive: > 76.9 µM.
For `O=C(c1c(Cl)cccc1Cl)N1CCN(c2ccccn2)CC1`, the Potency was inactive: > 76.9 µM.
The figure for `CCOC(=O)c1[nH]c2ccc(OC)cc2c1NC(=O)N1CCOCC1` is inactive: > 76.9 µM.
As for `CCOc1ccccc1NC(=O)NC1(C(=O)N2CCOCC2)CCCCC1`, the Potency is inactive: > 76.9 µM.
Regarding `Cc1occc1-c1nnc(SCC(=O)N2CCOCC2)n1CCc1ccccc1`, the Potency is inactive: > 76.9 µM.
The figure for `CC(C)C(c1nnnn1Cc1ccccc1)N1CCC(C(N)=O)CC1` (stereo unspecified) is inactive: > 76.9 µM; for `Cc1ccc(C(C)C)cc1S(=O)(=O)NCc1cccnc1` it is “inactive”.
Turning to `O=C(NCc1ccco1)c1cccc(S(=O)(=O)N2CCCCC2)c1`, the Potency is inactive: > 76.9 µM.
Under `COc1ccc(C2(NC(C)=O)CCN(C(=O)CCC(=O)O)CC2)cc1` stands inactive: > 76.9 µM.
As to `CCCCn1nnnc1NCc1cccc(OC)c1OC`, the Potency was inactive: > 76.9 µM.
Under `Cc1nccn1S(=O)(=O)c1ccc(Br)cc1Br` stands inactive: > 76.9 µM; under `Cc1cccn2c(=O)c3cc(C#N)c(=NC(=O)c4cccnc4)n(CC4CCCO4)c3nc12` (stereo unspecified), inactive: > 76.9 µM; under `CC(C)C(=O)Nc1cccc(NC(=O)c2cc3ccccc3o2)c1`, inactive: > 76.9 µM.
As for `CCSc1nnc(NC(=O)C2(C)Cc3ccccc3C(=O)O2)s1` (stereo unspecified), the Potency is inactive: > 76.9 µM.
